# Reference: paper PMC4336329 (PLoS ONE, 2015)
# Among all 310,000 compounds or so, about 14,000 (4.5%) showed an effect of 50% or more. The effect is printed as a negative number. This is one part of the list.
# Target: human ether-à-go-go-related gene (hERG) potassium channel (human, UniProt Q12809)
# Assay: primary screen, population patch clamp on CHO cells stably expressing hERG
# 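Further: peak tail current of the secondary pulse compared with the same well before compound.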
# human ether-à-go-go-related gene (hERG) potassium channel, sequence (Q12809 whole entry, looked up): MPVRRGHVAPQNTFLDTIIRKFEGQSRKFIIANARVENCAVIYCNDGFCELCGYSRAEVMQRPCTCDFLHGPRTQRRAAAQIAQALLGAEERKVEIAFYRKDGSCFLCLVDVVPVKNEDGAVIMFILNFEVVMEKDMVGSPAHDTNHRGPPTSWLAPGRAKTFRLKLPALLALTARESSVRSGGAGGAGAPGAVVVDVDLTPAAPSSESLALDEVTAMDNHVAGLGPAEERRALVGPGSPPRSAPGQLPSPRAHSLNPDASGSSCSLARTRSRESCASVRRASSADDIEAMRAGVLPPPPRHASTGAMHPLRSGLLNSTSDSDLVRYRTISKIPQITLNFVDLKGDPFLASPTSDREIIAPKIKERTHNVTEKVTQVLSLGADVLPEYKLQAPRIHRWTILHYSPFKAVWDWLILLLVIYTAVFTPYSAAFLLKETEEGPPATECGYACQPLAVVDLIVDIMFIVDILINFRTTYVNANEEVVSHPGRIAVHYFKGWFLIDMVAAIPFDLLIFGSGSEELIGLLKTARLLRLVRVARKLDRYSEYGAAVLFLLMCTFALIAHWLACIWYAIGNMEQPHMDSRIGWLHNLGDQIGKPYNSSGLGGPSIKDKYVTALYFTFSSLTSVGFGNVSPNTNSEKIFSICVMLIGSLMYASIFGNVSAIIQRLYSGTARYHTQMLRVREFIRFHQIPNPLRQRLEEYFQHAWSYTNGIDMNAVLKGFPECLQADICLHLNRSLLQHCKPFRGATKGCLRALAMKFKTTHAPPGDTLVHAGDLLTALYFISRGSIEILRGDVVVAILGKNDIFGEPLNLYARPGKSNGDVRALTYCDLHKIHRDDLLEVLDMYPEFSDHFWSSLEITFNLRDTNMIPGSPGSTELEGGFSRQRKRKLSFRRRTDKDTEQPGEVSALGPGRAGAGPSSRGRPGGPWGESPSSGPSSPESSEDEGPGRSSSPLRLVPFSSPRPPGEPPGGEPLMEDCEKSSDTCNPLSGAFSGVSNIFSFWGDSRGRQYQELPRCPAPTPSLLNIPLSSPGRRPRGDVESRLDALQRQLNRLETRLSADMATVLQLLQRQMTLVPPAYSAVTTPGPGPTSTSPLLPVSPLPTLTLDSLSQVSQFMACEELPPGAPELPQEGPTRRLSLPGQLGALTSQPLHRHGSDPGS
row,Compound,"hERG current change (%, negative = inhibition) at 10uM"
1,COc1cc(/C=N/NC(=S)NCc2ccco2)cc(OC)c1OC,15.9%
2,Cc1ccccc1NC(=O)N1CCCN(c2ccc(C#N)cn2)CC1,-30.1%
3,COc1ccc(OC)c(NC(=O)CSc2nc3cccnc3n2C)c1,-8.63%
4,COc1ccccc1N(CC1CO1)S(=O)(=O)c1ccc(C)cc1 (stereo not drawn),18.9%
5,CC(OC(=O)c1cnc(Cl)c(Cl)c1)C(=O)NCc1ccccc1 (stereo not drawn),-9.22%
6,COC(=O)C1=C(c2cccc(OCc3ccccc3)c2)C[C@@H]2CC[C@H]1N2C(=O)NCc1cccc(OC)c1,7.64%
7,C=C(C)CNC(=S)NNC(=O)CCn1c2ccccc2c2ccccc21,-20.1%
8,CCCCCn1c(N)c(C(=O)NCc2cccs2)c2nc3ccccc3nc21,-8%
9,C/C(=N\NC(=O)Cn1nc(C)c([N+](=O)[O-])c1C)c1ccc(Cl)s1,2.42%
10,CC1CCN(CC(=O)Nc2ccccc2Sc2ccccc2)CC1,-5.71%
11,O=C(Nc1ccccc1N1CCCCC1)C1CC(=O)N(c2ccccc2F)C1 (stereo not drawn),-2.85%
12,CC(C)CCn1cnc2c1c(=O)[nH]c(=O)n2Cc1ccccc1,5.51%
13,O=c1[nH]c2ccc(NCc3ccccc3OCc3ccc(Cl)cc3)cc2[nH]1,7.82%
14,O=C(N/N=C/c1cccs1)c1cc(-c2ccc3ccccc3c2)n[nH]1,-1.37%
15,O=C(c1ccco1)N1CCN(C23CC4CC(CC(C4)C2)C3)CC1,-13.4%
16,CCOc1ccccc1N1C(=O)NC(=O)/C(=C/c2ccc3c4c(cccc24)CC3)C1=O,2.74%
17,COc1ccc(CCNC(=O)C(=O)NCC2CCCN2S(=O)(=O)c2ccccc2)cc1 (stereo not drawn),-49.1%
18,O=C(NCN1C(=O)C2C3C=CC(C3)C2C1=O)OC1CCCCC1 (stereo not drawn),4.17%
19,N#Cc1nc(Cc2ccccc2)oc1NCc1ccccc1Cl,-12.4%
20,CC1Cc2ccccc2N1S(=O)(=O)c1cccs1 (stereo not drawn),-6.56%
21,CC(C)=C1C(=O)NN(c2ccc(F)c(Cl)c2)C1=O,18.5%
22,CC(C)CCN1CCN(Cc2cc(F)ccc2-n2cccn2)CC1CCO (stereo not drawn),-25.8%
23,Cc1cc(C)nc(N/C(=N\S(=O)(=O)Cc2ccccc2)Nc2ccc(F)c(Cl)c2)n1,-13.8%
24,CCN1CCc2c(OCC(=O)Nc3ccc4c(c3)OCCO4)cccc2C1=O,5.28%
